Assay results published in the supplement of paper PMC11417369.
This is one part of the list.

Tested on: PF3D7_0420300 AP2 domain 1 (GST-tagged)
Assay: gcPBM binding intensity (ln(normalized median fluorescence intensity)); higher = stronger DNA binding
Outline: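 Each value is the highest Masliner-normalised natural-log median intensity across replicate spots of either orientation of a probe. The probes were primer-extended double-stranded 36-bp intergenic genomic sequences on an Agilent 4 × 180k array, alongside negative controls, exposed for 1 h to GST-tagged P. falciparum DNA-binding domains expressed in E. coli. Bound protein was picked up with Alexa488 anti-GST antibody and scanned at 488 nm.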

Compared with “TTTTGCAATAATGTTGCACACTAAATAGTCATATAT [CACACA_site7977]”, “TTTATATTGATATATACACACATATACATCCTATTT [CACACA_site7442]” is higher in “gcPBM binding intensity (ln)” value: 9.17 for the first, 9.56 for the second.

First: ATTATTGTTGTTCATGTACACACTATAATAAAAGCA [CACACA_site4168]
Second: ATTAATTATTTCAATGCATGTGAACACTATATATAA [TGCATGCA_site600]
The “gcPBM binding intensity (ln)” value of the first is higher: 9.27 for the first, 9.26 for the second.

Going from TAAATATTTTTATGGGTGCGTTCTTTAGCGCAATTT to CATATAAAAAATATGGTGCAGTTTTTTTTTTTTTTT, the “gcPBM binding intensity (ln)” value rises from 8.92 to 9.1.

Going from “TATATATATAATGTTTGTACATATTAAATATATATG [XGTACX_site407]” to “TCCATTTATAAATTAGCATGCAATCTATGTCTGATA [TGCATGCA_site1045]”, the “gcPBM binding intensity (ln)” value falls from 9.1 to 9.02.

Going from “ATCAAAAGAAAACACACACACATACAGATATATATA [CACACA_site5974]” to “AATTAATGGGTACATACACACATATATACCTACATA [CACACA_site4572]”, the “gcPBM binding intensity (ln)” value falls from 10.2 to 9.57.

Going from “ATATATCAATATAAAAGTACAAACAAAAAATAATCA [XGTACX_site7559]” to “GATATATACTCCATCACACACCAAAAAGAAAAAAGA [CACACA_site7242]”, the “gcPBM binding intensity (ln)” value falls from 9.68 to 9.53.

First: ATATATATATATATATGTACATATTTCTCCATTTTT [XGTACX_site2869]
Second: CATATTTTTATAAATTGTACGTATATTATATATATA [XGTACX_site1816]
The “gcPBM binding intensity (ln)” value of the first is lower: 9.01 for the first, 9.18 for the second.

First: GTTTTTTATAATTGTAGTACAAGAAGATATTTTTAT [XGTACX_site5443]
Second: TGCAATTGTAAAGGCGCACACATATATATATATATA [CACACA_site4894]
The “gcPBM binding intensity (ln)” value of the first is lower: 9.19 for the first, 9.42 for the second.

First: GCATTGTCCATGCGCACACACTACTAGAATAATATG [CACACA_site5932]
Second: AAACCGTGGGAGCACACACACACACCGACACATATA [CACACA_site4338]
The “gcPBM binding intensity (ln)” value of the first is lower: 9.49 for the first, 10.1 for the second.

First: CCATCTAAACACAACTCGAGTTGGATGTGTGAACTT [XGTACX_negctrl_site83]
Second: CGGCACATTATATATACACACATATAAATAAATACA [CACACA_site4477]
The “gcPBM binding intensity (ln)” value of the first is lower: 9.3 for the first, 9.6 for the second.

First: TATATATATAAGTGCACACTGAACCAAGAAAATTAT [CACACA_site3008]
Second: GGATTGATAAGTGGTACACACATATAGATTATAGAT [CACACA_site7367]
The “gcPBM binding intensity (ln)” value of the first is higher: 9.59 for the first, 9.53 for the second.

First: AATATTAAATGAAAAAGTACAAACAGTCCTATATTA [XGTACX_site1926]
Second: ATTTATATAAAGAATGTACACACAGAAATGCACCCA [CACACA_site8715]
The “gcPBM binding intensity (ln)” value of the first is lower: 9.23 for the first, 9.65 for the second.

Compared with “CGTATGCACAAATTATGTACTTATATATATATATAT [XGTACX_site2348]”, “TAAATATATATATGTGTGCACTTCTTCATTTTAATA [GTGCAC_site9537]” is higher in “gcPBM binding intensity (ln)” value: 9.34 for the first, 9.47 for the second.

“AAAAAAAAAAAACATACACACAAATAAATACATACA [CACACA_site6073]” and “ATACAAGAATTAAACACACACAAAATATAAATTCTT [CACACA_site3005]” are the same in “gcPBM binding intensity (ln)” value: 9.9 for the first, 9.9 for the second.

Compared with “AGCAACCTGAAAAAATTACTCTTTCTTAAACAAATT [XGTACX_negctrl_site266]”, “ACCTGTAAAAATGTTTATATATATATATATATATAT [CACACA_negctrl_site1500]” is higher in “gcPBM binding intensity (ln)” value: 8.92 for the first, 9.33 for the second.

Compared with “TTAAGGATTAAGGTGTGTACATATAAATATTATATA [XGTACX_site7532]”, “TGTTTATTCTTTAAATATTATTCAAATACTACAAGT [CACACA_negctrl_site746]” is lower in “gcPBM binding intensity (ln)” value: 9.31 for the first, 8.95 for the second.

Going from “AAAAAAAAAAAAAATTGTACATAATAAAAATATGGA [XGTACX_site3189]” to “TATGGTAAATACAACACACACACATATGTATTTATA [CACACA_site4666]”, the “gcPBM binding intensity (ln)” value rises from 9.07 to 9.93.

Going from “TGGATATAAAACAACGTGCACTTGGTTGATTTTAAA [GTGCAC_site9900]” to “ATTTATTTATATAATACACACAAATATCTTAATTAA [CACACA_site3993]”, the “gcPBM binding intensity (ln)” value rises from 9.09 to 9.25.

Going from “TTTTGTACAAAAATAATGCACACTATATCAAGTTTT [CACACA_site3595]” to “AAGAAAATATATTCACATGAAGAATTAAAATAAAAC [TGCATGCA_negctrl_site119]”, the “gcPBM binding intensity (ln)” value rises from 9.22 to 9.47.

First: ATATAAAAAGGAAAAAGTACAAAAAAATGTTTGTGA [XGTACX_site8552]
Second: CAAATTATTATTTAAGCACACATGTTTATTTTTTTT [CACACA_site2672]
The “gcPBM binding intensity (ln)” value of the first is lower: 9.33 for the first, 9.34 for the second.

First: TAGGCCTTAAATCGTGTGCACTTTTTTTTTTTTTTT
Second: TATGTGCCAAAACACACACACATATATATATATATA [CACACA_site469]
The “gcPBM binding intensity (ln)” value of the first is lower: 9.31 for the first, 9.62 for the second.

First: TTTTTTTTTTTTTTTTTTGGTGAGAGAAGAAAATTC [CACACA_negctrl_site950]
Second: AAGCATACATCAAGCACACACACACCCACACCCACA [CACACA_site372]
The “gcPBM binding intensity (ln)” value of the first is lower: 8.49 for the first, 10.1 for the second.

Compared with “AAATATATCAATATATATATATATATATATATATAT [XGTACX_negctrl_site544]”, “ATTTATATTTGTATTTGTACTTATATTTATATTTAT [XGTACX_site1540]” is higher in “gcPBM binding intensity (ln)” value: 8.92 for the first, 9.64 for the second.

Compared with “GCTTTTGTCATGTGCACACACGTATATATTATATAT [CACACA_site6146]”, AAAAAGGTTAAGGTAGTGCATAATAAAGAATATTAA is lower in “gcPBM binding intensity (ln)” value: 9.99 for the first, 9.25 for the second.

Going from “ATCATTCTTCATTTGTCACACATGATAAAAATATAT [CACACA_site4953]” to “CTATTTTGGATGTGTACACATATATATATTTATATT [CACACA_site5706]”, the “gcPBM binding intensity (ln)” value rises from 9.34 to 9.53.

Compared with “CTATTATAATATTTTACACACCATGTAAAATATATA [CACACA_site3206]”, “TTTTTTAAGTAATGAAATGATTTTCTTATAGAATAA [GTGCAC_negctrl_site395]” is lower in “gcPBM binding intensity (ln)” value: 9.26 for the first, 8.58 for the second.

First: CATTAACATTTTATTACACACAATAATTTATAAGTA [CACACA_site4083]
Second: TGTGCAAGATTTTTCTGTACATATATATAAATATAT [XGTACX_site1796]
The “gcPBM binding intensity (ln)” value of the first is higher: 9.37 for the first, 8.9 for the second.

Compared with “AAATATTCTTGTTTAATACACACTGTAGTATTATAT [CACACA_site433]”, “TAAATACTAATATGTACACACATATAGATATAGATT [CACACA_site7247]” is lower in “gcPBM binding intensity (ln)” value: 9.45 for the first, 9.4 for the second.

In the case of “GCTAAAAGTATATGCACACACATATATATGCACATA [CACACA_site1635]”, the “gcPBM binding intensity (ln)” value is reported as 9.58.
